PubChem BioAssay AID624417 (National Center for Advancing Translational Sciences (NCATS), 2012)
Out of some 410,000 compounds screened, about 6,400 (1.6%) were called active. The shares of active, inactive and inconclusive entries below differ from those in the screen. Calls come from the whole dose curve; as a rule, active = well fitted inhibition curve with a large enough effect; inconclusive = small, poorly fitted or top-dose-only effect; inactive = no such curve, though single readings can be large or run the other way. No potency is given beside an inconclusive call; the fits are too rough.

Each compound was assayed against Glucagon-like peptide 1 receptor (Homo sapiens) (UniProt P43220) (assay: qHTS of GLP-1 Receptor Inverse Agonists (Inhibition Mode)). Conditions: HEK293 GLP-1R CRE-luciferase, luminescence, 24 h, GLP-1R form is constitutively active; activity change, negative = inhibition: at 38.3 µM (top of the series) unless noted.
Outline: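 HEK293 cells stably co-expressing constitutively active GLP-1R and a cAMP-responsive luciferase reporter were seeded in DMEM with 10% Nu serum, given compounds after 12 h, and incubated 24 h at 37 deg C. Luminescence was then read.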
% is set by controls: 0 for no effect and ±100 for the full control effect; potency is the fitted concentration of half-maximal effect; tags give direction and shape of the fitted curve.
Note: nearly all actives have a fitted effect of over 55% in size.

UniProt P43220, sequence (P43220 whole entry, looked up): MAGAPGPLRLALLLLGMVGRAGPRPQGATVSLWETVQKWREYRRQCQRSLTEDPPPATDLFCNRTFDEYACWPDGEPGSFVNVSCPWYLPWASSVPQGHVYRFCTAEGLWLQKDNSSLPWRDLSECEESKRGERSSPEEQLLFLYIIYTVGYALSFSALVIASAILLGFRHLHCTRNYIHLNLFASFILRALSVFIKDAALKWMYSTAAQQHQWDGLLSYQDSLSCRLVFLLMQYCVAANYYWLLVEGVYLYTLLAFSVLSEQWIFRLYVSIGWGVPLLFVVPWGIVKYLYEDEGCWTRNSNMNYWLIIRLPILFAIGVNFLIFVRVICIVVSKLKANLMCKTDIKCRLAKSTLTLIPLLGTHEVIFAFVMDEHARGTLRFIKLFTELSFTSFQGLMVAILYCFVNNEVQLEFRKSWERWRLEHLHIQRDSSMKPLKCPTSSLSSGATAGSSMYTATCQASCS

Compound | Potency | activity change, negative = inhibition
Cn1c(SCC(=O)Nc2ccccc2F)nnc1C1CCCCC1 | inconclusive [inhibitor, partial curve, poor fit] | 
Cc1cc(=O)n2c(nc3ccccc32)[nH]1 |  | inactive: 103%
Cc1ccc(Nc2nc(NCc3cccs3)nc3ccsc23)c(C)c1 | inconclusive [inhibitor, single point] | 
CC(Sc1nnc(CNc2cccc3ccccc23)n1-c1ccccc1)C(=O)N/N=C/c1ccco1 (configuration not stated) |  | inactive: -2.71%
O=C(c1ccc(Cl)c(S(=O)(=O)N2CCCCC2)c1)N1CCCCCC1 | inconclusive [inhibitor, single point] | 
CCCn1c(SCC(=O)Nc2cc(Cl)ccc2Cl)n[nH]c1=O | inconclusive [inhibitor, single point] | 
C[C@@]12C(=O)Nc3cc(Cl)ccc3C(=O)N1[C@H]1c3ccccc3OC[C@@H]1[C@@H]2c1ccccc1 | inconclusive [inhibitor, single point] | 
Cc1ccc(C(=O)CN2C(=O)c3ccccc3S2(=O)=O)cc1 | inconclusive [inhibitor, full curve, poor fit] | 
Cc1ccc2c(c1)N(CC(=O)N(Cc1ccccn1)Cc1ccco1)C(=O)C(C(C)C)O2 (configuration not stated) | inconclusive [inhibitor, partial curve, poor fit] | 
CCN(CC)CCOC(=O)c1ccc(NC(=O)CCCN2C(=O)/C(=C\c3cccs3)SC2=S)cc1 | inconclusive [inhibitor, partial curve, poor fit] | 
Cc1cc2cc(C#N)c(N3CCN(S(C)(=O)=O)CC3)nc2cc1C |  | inactive: 48.3%
COc1ccc(NC(=O)C2(C)Cc3c(-c4cccc(C(N)=O)c4)ccnc3O2)cc1 (configuration not stated) | inconclusive [inhibitor, partial curve] | 
O=C(OCC(=O)N(CCc1ccccc1)Cc1ccccc1)c1ccc(F)c(S(=O)(=O)N2CCOCC2)c1 | inconclusive [inhibitor, partial curve, poor fit] | 
COc1cccc(-c2cc(C(=O)Nc3cccnc3)c3ccccc3n2)c1 | inconclusive [inhibitor, partial curve, poor fit] | 
CCN(CC)S(=O)(=O)c1cc(NC(=O)Cc2ccsc2)ccc1C | inconclusive [inhibitor, single point] | 
Cc1cccc(C(=O)Oc2c(Sc3ccccc3)c(C)nn2C(C)(C)C)c1 |  | inactive: -76%
Cc1ccc(NC(=O)C2CCCN2C(=O)OCc2ccccc2)cc1F (configuration not stated) | inconclusive [inhibitor, partial curve, poor fit] | 
Cn1c(=O)c(=O)n(C)c2cc(S(=O)(=O)N3CCN(c4ccccc4)CC3)ccc21 |  | inactive: 6.34%
CCOC(=O)[C@]12CCC=C1N(Cc1ccccc1)C(=O)[C@H](CC(=O)NCCc1ccccc1OC)C2 | inconclusive [inhibitor, single point] | 
CC(C)(C)C(=O)Nc1cc(S(=O)(=O)N2CCCCC2)ccc1N1CCCCC1 | inconclusive [inhibitor, partial curve, poor fit] | 
Cc1cccc(C(CC(=O)NCCc2ccccc2)c2ccccc2)c1O (configuration not stated) | inconclusive [inhibitor, partial curve, poor fit] | 

Compound | Potency | activity change, negative = inhibition
S=c1[nH]nc(COc2ccccc2)n1/N=C/c1c(Cl)cccc1Cl |  | inactive: -5.29%
O=C(c1cc(C2CC2)nn1-c1ccccc1)N1CCN(Cc2ccc(Cl)cc2)CC1 | inconclusive [inhibitor, partial curve, poor fit] | 
COc1cccc(C(=O)/C=C/Nc2ccc(S(=O)(=O)Nc3cccc(C(C)=O)c3)cc2)c1 | inconclusive [inhibitor, single point] | 
O=C(CN(C(=O)c1csnn1)c1cccc2ccccc12)NCc1ccc(F)cc1 | inconclusive [inhibitor, single point] | 
O=C(c1cc2cc(Cl)ccc2[nH]1)N1CCN(Cc2ccc3c(c2)OCO3)CC1 | active: 11.2 µM | 
Cc1ccc(Cl)cc1NC(=O)c1ccc(Cn2cc(Cl)cn2)cc1 | inconclusive [inhibitor, single point] | 
Cn1c(-c2cccc([N+](=O)[O-])c2)cnc1NCc1cccc(F)c1 | inconclusive [inhibitor, single point] | 
Cc1cc(C(=O)O/N=C(\N)c2ccc(C(C)(C)C)cc2)no1 |  | inactive: 15.5%
Cc1ccccc1CSc1nccn1-c1ccccc1 | inconclusive [inhibitor, partial curve, poor fit] | 
COCC(C)Nc1ncnc2c1cnn2-c1ccc(C)c(C)c1 (configuration not stated) | inconclusive [inhibitor, single point] | 
O=S1(=O)N[C@H](Cc2ccccc2)COc2cccc(N3CCC[C@H]3CO)c21 |  | inactive: -4.08%
Cc1c(CCOC(=O)C2C3CC4CC(C3)CC2C4)sc[n+]1CC(=O)c1ccc(Br)cc1 (configuration not stated) | active: 11.2 µM | 
CCOc1ccc(N2CC(NC(=O)C3CC3)CC2=O)cc1 (configuration not stated) |  | inactive: 10.9%
FC(F)(F)c1ccccc1Cc1c(-c2ccco2)nc2ccc(Br)cn12 | inconclusive [inhibitor, single point] | 
CCOc1ccccc1OCCCC(=O)Nc1cc(S(=O)(=O)N2CCCCC2)ccc1C | inconclusive [inhibitor, partial curve, poor fit] | 
Cc1ccc(C(=O)Nc2cccc(C(=O)OCc3cc(=O)n4nc(C5CC5)sc4n3)c2)cc1 |  | inactive: -9.51%
CC(C(=O)N1CCCCC1)n1sc2ccccc2c1=O (configuration not stated) |  | inactive: -2.09%
O=C(OCc1ccccc1)N1CCC2CC1c1cc(-c3ccc4c(c3)OCO4)ccc12 (configuration not stated) | inconclusive [inhibitor, single point] | 
Cc1ccc(/C=N/NC(=O)CSCc2ccc(Cl)cc2)cc1 | inconclusive [inhibitor, partial curve, poor fit] | 
CC1(C)Cc2nc3oc4c(N(CCO)Cc5ccccc5)ncnc4c3cc2CO1 |  | inactive: -28.2%
Cc1ccc(CN2CCCn3nc(C(=O)NCCc4ccccc4Cl)cc3C2=O)cc1 | inconclusive [inhibitor, partial curve, poor fit] | 
